The data scatter; read single values as rough.
assay: amyloid nucleation score relative to library mode (yeast Sup35 reporter selection) (log enrichment difference); higher = more amyloid nucleation; sequences are the first 22 residues of the Bri2 peptide extended by up to 12 random residues; settings: random library (experiment): 1;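 active = nucleation score significantly above 0 at FDR 0.05; inactive = not significantly above 0 or absent from output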
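Further: [psi-pin-] Saccharomyces cerevisiae expressing SupN fusions, induced by 100 µM Cu2SO4, selected 7 d at 30 °C without adenine and uracil, scored by deep sequencing of output versus input.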

Sequence | amyloid nucleation score
EASNCFAIRHFENKFAVETLICVLTWQV | inactive
EASNCFAIRHFENKFAVETLICVLVRTAVKGLRV | inactive
EASNCFAIRHFENKFAVETLICVLVSDYMRVVIW | inactive
EASNCFAIRHFENKFAVETLICVLVWFVNRYRAL | inactive
EASNCFAIRHFENKFAVETLICVLWLGTRLFRVM | 4.89
EASNCFAIRHFENKFAVETLICVLWSPYFLMRVR | inactive
EASNCFAIRHFENKFAVETLICVLWTVGGSGQGR | inactive
EASNCFAIRHFENKFAVETLICVLWVILSVPDHV | inactive
EASNCFAIRHFENKFAVETLICVM | -0.471
EASNCFAIRHFENKFAVETLICVMALLTWRRCQT | inactive
EASNCFAIRHFENKFAVETLICVMAQYNFKNAVG | inactive
EASNCFAIRHFENKFAVETLICVMERKCSLRSLE | inactive
EASNCFAIRHFENKFAVETLICVMFRYVVCTFRW | inactive
EASNCFAIRHFENKFAVETLICVMFSTRLRNLAM | inactive
EASNCFAIRHFENKFAVETLICVMFWLM | inactive
EASNCFAIRHFENKFAVETLICVMGMVAMLTFKV | 0.0198
EASNCFAIRHFENKFAVETLICVMGRFT | inactive
EASNCFAIRHFENKFAVETLICVMIQKVIRGSPR | inactive
EASNCFAIRHFENKFAVETLICVMIS | inactive

Sequence | amyloid nucleation score
EASNCFAIRHFENKFAVETLICVMKSA | inactive
EASNCFAIRHFENKFAVETLICVMMLFFV | -0.187
EASNCFAIRHFENKFAVETLICVMMMHISLCVVR | -0.029
EASNCFAIRHFENKFAVETLICVMRFL | 0.703
EASNCFAIRHFENKFAVETLICVMRNWEITVLGG | 5.99
EASNCFAIRHFENKFAVETLICVMRPKL | inactive
EASNCFAIRHFENKFAVETLICVMRQFSPEANK | inactive
EASNCFAIRHFENKFAVETLICVMRRVPIAVGVG | inactive
EASNCFAIRHFENKFAVETLICVMS | 6.83
EASNCFAIRHFENKFAVETLICVMTGLNFERS | inactive
EASNCFAIRHFENKFAVETLICVMVCSWALVVGR | inactive
EASNCFAIRHFENKFAVETLICVMVCWKPADCNP | inactive
EASNCFAIRHFENKFAVETLICVMVMICQRAVTW | inactive
EASNCFAIRHFENKFAVETLICVMVTFGGVEGAM | inactive
EASNCFAIRHFENKFAVETLICVMWESCCTGGDW | 8.19
EASNCFAIRHFENKFAVETLICVMWHSFDSGYVR | inactive
EASNCFAIRHFENKFAVETLICVMYTSDNLAMYT | inactive
EASNCFAIRHFENKFAVETLICVMYTWSERGPGR | inactive

same assay, conditions: random library (experiment): 2

Sequence | amyloid nucleation score
EASNCFAIRHFENKFAVETLICVLTLLCCKAPGF | 3.29
EASNCFAIRHFENKFAVETLICVLV | 7.04
EASNCFAIRHFENKFAVETLICVLVKWNASVCCV | inactive
EASNCFAIRHFENKFAVETLICVLW | 4.24
EASNCFAIRHFENKFAVETLICVLWT | 5.41
EASNCFAIRHFENKFAVETLICVLYFLYSYVNC | inactive
EASNCFAIRHFENKFAVETLICVLYLDSCNNA | 8.21
EASNCFAIRHFENKFAVETLICVMCCNYVVYIV | 6.72
EASNCFAIRHFENKFAVETLICVMCKVLLDFSVK | 1.09
EASNCFAIRHFENKFAVETLICVMCTKYSRNCVT | inactive
EASNCFAIRHFENKFAVETLICVMDDNWKGNCPC | 7.58
EASNCFAIRHFENKFAVETLICVMDVGIVICHVK | inactive
EASNCFAIRHFENKFAVETLICVMELL | inactive
EASNCFAIRHFENKFAVETLICVMERNNYIMYVG | 2.55
EASNCFAIRHFENKFAVETLICVMFFDLRRKYSS | inactive
EASNCFAIRHFENKFAVETLICVMFTGYSMCSVV | 3.77

Sequence | amyloid nucleation score
EASNCFAIRHFENKFAVETLICVMGFYRCLRVDD | inactive
EASNCFAIRHFENKFAVETLICVMGGQVRFVVPC | 8
EASNCFAIRHFENKFAVETLICVMHMWLSASIVN | inactive
EASNCFAIRHFENKFAVETLICVMHVFFWSFRTV | 0.4
EASNCFAIRHFENKFAVETLICVMKVSTFSYAPR | 3.58
EASNCFAIRHFENKFAVETLICVMMCSLSICCGV | inactive
EASNCFAIRHFENKFAVETLICVMMGVGAALKKR | inactive
EASNCFAIRHFENKFAVETLICVMNLPNDVMSYE | 6.8
EASNCFAIRHFENKFAVETLICVMNYFYDYNH | 7.2
EASNCFAIRHFENKFAVETLICVMPHFFLCSVPD | 6.85
EASNCFAIRHFENKFAVETLICVMSNMW | 2.41
EASNCFAIRHFENKFAVETLICVMVCHHWRPNAS | 1.78
EASNCFAIRHFENKFAVETLICVMVG | inactive
EASNCFAIRHFENKFAVETLICVMVSVA | 5.66
EASNCFAIRHFENKFAVETLICVMYVSTDVLTWW | inactive

same assay, conditions: random library (experiment): 3

Sequence | amyloid nucleation score
EASNCFAIRHFENKFAVETLICVLTWPHRLMSPV | inactive
EASNCFAIRHFENKFAVETLICVLVDWDAPLSCV | 3.5
EASNCFAIRHFENKFAVETLICVLVNDDELLFSR | 5.13
EASNCFAIRHFENKFAVETLICVLVSRCPFLCRC | inactive
EASNCFAIRHFENKFAVETLICVLVVNEDKCVKA | 7.71
EASNCFAIRHFENKFAVETLICVLWWVSRGAVSM | inactive
EASNCFAIRHFENKFAVETLICVLYFTGFSYSVC | inactive
EASNCFAIRHFENKFAVETLICVMCQRYWDECAT | inactive
EASNCFAIRHFENKFAVETLICVMEARN | inactive
EASNCFAIRHFENKFAVETLICVMFTLLYALSCR | inactive
EASNCFAIRHFENKFAVETLICVMGICGGPGVRV | inactive
EASNCFAIRHFENKFAVETLICVMGMGVEPAVSW | 0.0748
EASNCFAIRHFENKFAVETLICVMIHI | 2.62
EASNCFAIRHFENKFAVETLICVMMAV | inactive
EASNCFAIRHFENKFAVETLICVMPGCIYAIDMV | inactive
EASNCFAIRHFENKFAVETLICVMTSLFVALGGC | inactive
EASNCFAIRHFENKFAVETLICVMVSAF | inactive
EASNCFAIRHFENKFAVETLICVMVT | inactive
EASNCFAIRHFENKFAVETLICVMWRMSLVGLGR | inactive

Source: the supplement of paper PMC12067230
